Laboratory results taken from patent publication US20210054047A1 (KOREA INSTITUTE OF SCIENCE AND TECHNOLOGY, published 2021).

Biological target: T1, monomeric TRAIL (mTRAIL) extracellular domain (Homo sapiens (Human), UniProt P50591 95-281)
T1 construct: Expressed in E. coli from pET28a-mTRAIL and purified on Ni-NTA; a vector tag is not spelled out
Assay: SPR, DR5-Fc captured on Protein A chip, 25° C., 1:1 Langmuir model
Protocol: DR4 and DR5-fc chimeric proteins (R&D systems 347-DR-100, 631-T2-100) were immobilized on the surface of the Planar Protein A sensor chip (Reichert, 13206069) and the receptors were coated at a level of 300 to 500 resonance units. […] Each analyte was run at 50 μL/min using running and sample buffer (0.5 M Tris-HCl (pH 7.4), 150 mM NaCl, 0.005% Tween 20), and binding of the ligand to the receptor was performed and monitored in real time. For titration sensorgrams, a simple 1:1 Langmuir interaction model (A+B↔AB) was applied using the data analysis program Scrubber 2.0 (BioLogic Software, Australia, and KaleidaGraph Software, Australia) and CLAMP software.
The affinity KD was determined from the formula of KD=kd/ka.

B1: DR5-Fc chimeric protein (R&D systems 631-T[…]) (Fc fusion)
chain: not shown
notes: Bought (R&D systems 631-T[…]); Captured on a Protein A sensor chip; also called TRAIL R2; death receptor 5; Fc part of the bought chimera not given
Kd: 25.4 nM | koff: 3.87e-05 s⁻¹ | kon: 1480 M⁻¹ s⁻¹
